The campaign covered roughly 52,000 compounds. About 1,700 (3.3%) were called active. Cut-off read from the data, not from the text of the source: active = survival mostly below about 52% (no sharp cut-off); inactive = mostly above about 56%. The list shows a part of the results.

In PubChem BioAssay AID463173 (ICCB-Longwood Screening Facility, Harvard Medical School, 2010) one finds survival data, which are given here for 56 molecules.

The test system of this test is Wild type. In words: growth inhibition of S. aureus wild type versus tarO mutant, primary screen, teichoic acid synthesis inhibitors, RN4220, OD600 (AID 463173). Conditions: S. aureus RN4220 wild type/DeltatarO growth, OD600, 18 h, hits give low values, screened at 18.75 µg/mL (by protocol).
Turning to `Cc1ccc(NC(=O)N2CCc3cc(S(=O)(=O)N4CCC(C)CC4)ccc32)cc1F`, the survival is inactive: 126%.

Turning to `CCOC(=O)c1ccc(N2C(=O)c3[nH]nc(-c4ccc(OC)cc4)c3C2c2ccccc2Cl)cc1` (stereo unspecified), the survival was inactive: 75%.

For the molecule `Cc1ccccc1C(=O)NC1CCN(Cc2nnnn2C2CCCC2)CC1`, the survival is inactive: 102%.

`O=C(Nc1ccccc1)N(Cc1cccs1)c1ccc(F)cc1`: the survival is inactive: 86%. Consider `COc1cccc(CNC(=O)c2cc(S(=O)(=O)N3CCCCCC3)cn2C)c1`, for which the survival was inactive: 85%. Regarding `CCOC(=O)c1sc(N2C(=O)c3oc4ccc(C)cc4c(=O)c3C2c2ccccc2F)nc1C` (stereo unspecified), the survival is inactive: 134%. As to `CCOC(=O)CSc1nc2cc3c(cc2c(=O)n1CCCC(=O)NCCc1ccc(OC)c(OC)c1)OCO3`, the survival is active: -4%.

Take `CCOC(=O)c1c(NC(=O)CSc2cn(CCNC(=O)c3ccc(OC)c(OC)c3)c3ccccc23)sc2c1CCCC2`: the survival was inactive: 80%. For `CCc1cccc(NS(=O)(=O)c2ccc3c(c2)n(C)c(=O)c(=O)n3C)c1` the value was inactive: 82%; for `CCOc1ccc(N2C(=O)c3n[nH]c(-c4cccs4)c3C2c2cccc(F)c2)cc1` (stereo unspecified), inactive: 60%; for `CCOC(=O)c1ccc(-n2c(-c3ccc(C)cc3)c(C)n3c4c(=O)n(C)c(=O)n(C)c4nc23)cc1`, inactive: 73%. As to `COc1ccc(-c2cc(-c3ccc4c(c3)NC(=O)CO4)nc3c2COc2ccc(F)cc2-3)cc1`, the survival is inactive: 68%. With `CCc1nonc1NC(=O)c1oc2ccc(C)cc2c1C`, the survival is inactive: 91%. In the case of `O=c1[nH]ncc(NCc2ccc(Cl)cc2)c1Cl`, the survival was inactive: 87%. For `O=C(CCCSc1nc(-c2ccco2)cc(C(F)(F)F)n1)Nn1cnnc1`, the survival is inactive: 108%. For `CN(C)c1ccc(-c2nc(-c3ccco3)no2)cc1[N+](=O)[O-]` the value was inactive: 86%; for `CCc1ccc(NC(=O)c2ccc(F)c(S(=O)(=O)NCc3ccc(Cl)c(Cl)c3)c2)cc1`, inactive: 129%.

As for `CCN(CC)S(=O)(=O)c1ccc2c(c1)N(CC(=O)N1CCN(c3cccc(OC)c3)CC1)C(=O)CO2`, the survival was inactive: 60%. For `Cc1ccc(Cl)cc1-n1ncc2c(NCCCc3ccccc3)ncnc21`, the survival was inactive: 133%. With `Cc1c(Nc2nc3ccccc3n3c(C)nnc23)cccc1C(=O)O`, the survival was inactive: 84%. For `CCOc1ccccc1CNC(=O)c1ccc2c(c1)nc1n2CCCCC1` the value was inactive: 112%; for `Fc1ccc(-n2ncc3c(N4CCCCCC4)ncnc32)cc1`, inactive: 82%. For `Cc1ccc(NC(=O)N2CC3CCCN3c3ccccc32)c(C)c1` (stereo unspecified) the value was inactive: 117%; for `COc1ccc(NC(=O)c2ccco2)cc1NC(=O)COc1ccc(Cl)c(C)c1`, inactive: 107%; for `Cc1ccc(-c2cc(C(=O)N(Cc3ccc(C(C)(C)C)cc3)Cc3ccco3)no2)cc1`, inactive: 123%.

In the case of `Cc1cc(N2CCN(c3cccc(C(F)(F)F)c3)CC2)n2nc(-c3ccccc3)nc2n1`, the survival was inactive: 87%. For `CCc1cccc(C)c1NC(=O)CCn1c(=O)c2cccn2c2ccccc21` the value was inactive: 79%; for `CC(C)C(=O)NCC1(N(C)C)CCCCC1`, inactive: 87%. Regarding `CCOc1ccc(C(=O)Nc2c(C(=O)N3CCN(c4ccccc4F)CC3)oc3ccccc23)cc1`, the survival is inactive: 82%.

`Cc1ccc(NS(=O)(=O)c2cc3[nH]c(=O)c(=O)[nH]c3cc2C)cc1Cl`: the survival was inactive: 75%.

Take `CCOc1ccc(-n2nc(CO)c(C(=O)NCc3cccs3)n2)cc1`: the survival is inactive: 82%. `Cc1ccc([N+](=O)[O-])cc1S(=O)(=O)N1CCn2cccc2C1c1ccccc1` (stereo unspecified): the survival was inactive: 92%.

For the molecule `COc1ccc(N2CCN(Cc3cccn3-c3nnc(N4CCN(C5CCCCC5)CC4)s3)CC2)cc1`, the survival is inactive: 93%. In the case of `Cc1nc(SC(C)C(=O)Nc2ccccc2Cl)cc(-c2ccccc2)n1` (stereo unspecified), the survival is inactive: 76%. For `CCn1cc(C(=O)N2CCN(c3cc(C)ccc3C)CC2)c(=O)c2cc(S(=O)(=O)N3CCCCC3)ccc21` the value was inactive: 76%. On to `CC(Oc1ccc(Br)cc1)C(=O)Nc1ncn[nH]1` (stereo unspecified), for which the survival is inactive: 91%.

Consider `Cc1ccc(C)c(NC(=O)C2CCCN(S(=O)(=O)c3cn(C)cn3)C2)c1` (stereo unspecified), for which the survival was inactive: 101%. For `CC1(C)CC(=O)C(Sc2nnc(-c3ccc(O)cc3)n2CC2CCCO2)C(=O)C1` (stereo unspecified) the value was inactive: 103%; for `COc1ccc(NC(=O)CCc2nnc3n(Cc4ccccc4Cl)c(=O)c4ccccc4n23)cc1`, inactive: 86%; for `CC1CCCCN1C(=O)C1CCN(S(=O)(=O)c2ccc(-n3cnnn3)cc2)CC1` (stereo unspecified), inactive: 100%.

Take `Cc1ccc2nc(-c3ccc(Cl)c(NC(=O)COc4ccc(C(C)C)cc4)c3)oc2c1`: the survival is inactive: 59%. For `Cc1ccc(S(=O)(=O)CCSC(=N)N)cc1` the value was inactive: 92%; for `Cc1ccc(N2C(=O)N(Cc3cc(=O)n4ccccc4n3)c3ccccc3S2(=O)=O)cc1Cl`, inactive: 72%; for `CCOc1ccccc1CNC(=O)Cn1cc2c(n1)-c1c(oc(C(=O)N3CCCC3)c1C)CC2`, inactive: 91%. For `CCNc1cc(N2CCN(C3CCCCC3)CC2)c2noc3c2c1C(=O)c1ccccc1-3` the value was inactive: 84%; for `CCCCNc1c2c(nc3ccccc13)CC(C)(C)CC2O` (stereo unspecified), inactive: 105%; for `COc1ccc(Br)cc1CNC(=O)CCSCc1ccc(C)cc1`, inactive: 72%. For `Cc1ccc(S(=O)(=O)N2CCN(Cc3nc4ccc(C)cc4o3)CC2)cc1` the value was inactive: 80%; for `O=C(Cn1cc(S(=O)(=O)c2ccccc2)c(=O)c2cc3c(cc21)OCO3)Nc1ccc(Cl)cc1`, inactive: 65%. Regarding `O=C(CS(=O)(=O)c1cccc2nsnc12)N1CCN(c2cccc(C(F)(F)F)c2)CC1`, the survival was inactive: 80%.

As for `CSc1ccc(CCNC(=O)c2ccc(-c3nc(COc4ccc(C)cc4)c(C)o3)cc2)cc1`, the survival is inactive: 99%. For `CCOC(=O)CSc1nc2ccccc2c(=O)n1-c1cccc(C)c1` the value was inactive: 59%; for `COC(=O)c1ccccc1NC(=O)C1=C(C)C(=O)OC12CCCCCC2`, inactive: 91%.

Take `COc1ccc(C(=O)Nc2ccccc2SCc2cc(=O)c3cccc(C)c3[nH]2)cc1`: the survival is inactive: 71%. For `O=C(O)Cc1ccc(NC2(c3ccccc3)C(=O)c3ccccc3C2=O)cc1`, the survival is inactive: 45%.

For `COc1ccc(S(=O)(=O)NCCS(=O)(=O)N2CCN(c3ccccc3)CC2)cc1C`, the survival is inactive: 135%.
